Reference: PubChem BioAssay AID1346428 (National Center for Advancing Translational Sciences (NCATS), 2018)
Out of some 48,000 compounds screened, about 1,200 (2.5%) were called active. Not shown: some 2% with an inconclusive outcome.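 How the source made its calls: active means activation of at least 60% and not above a set upper limit (about 1 call in 100 departs from these limits); inconclusive means activation of 40% to 60%, or above that upper limit; inactive means activation under 40%.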 The list shows a part of the results.

target: Probable G-protein coupled receptor 32 (Homo sapiens) (UniProt O75388); test: qHTS for Agonists of Human Resolvin D1 Receptor DRV1; settings: CHO-K1 GPR32 beta-arrestin PathHunter luminescence, 90 min; at 76.9 µM; stronger effect = higher value; zero percent set by DMSO-only wells
How it was run: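 Using DMSO wells as EC0, agonist-induced signal was taken as chemiluminescence from beta-Gal reconstituted upon beta-arrestin recruitment to GPR32 in CHO-K1 cells after 90 min compound treatment.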

Chain of UniProt O75388 (O75388 whole entry, looked up): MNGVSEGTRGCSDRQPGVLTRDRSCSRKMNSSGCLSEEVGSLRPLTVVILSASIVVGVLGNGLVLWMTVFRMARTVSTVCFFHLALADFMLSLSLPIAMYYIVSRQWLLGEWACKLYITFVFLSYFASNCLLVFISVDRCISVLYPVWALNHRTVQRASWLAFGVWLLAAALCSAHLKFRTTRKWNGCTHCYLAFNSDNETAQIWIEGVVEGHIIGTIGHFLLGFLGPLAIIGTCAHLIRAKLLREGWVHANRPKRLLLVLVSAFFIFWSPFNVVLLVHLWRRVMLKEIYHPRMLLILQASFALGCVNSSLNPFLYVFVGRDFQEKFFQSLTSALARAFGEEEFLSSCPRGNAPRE

Row | SMILES | activation
1 | CCOCCCNC(=O)c1cnc2sc(N3CCCCCC3)nn2c1=O | inactive: -0.288%
2 | CCOc1ccc(NC(=O)Cn2c(=O)n(CCc3ccccc3)c(=O)c3c4c(sc32)CN(C(C)=O)CC4)cc1 | inactive: -10.1%
3 | CCc1ccc(NC(=O)CSC2=Nc3ccccc3C3=NC(CCC(=O)NCc4ccccc4OC)C(=O)N23)cc1 (configuration not stated) | inactive: -15.5%
4 | CCOc1ccc(OCC)c(NC(=O)c2cc(C)nc3c2c(C)nn3-c2cccc(Cl)c2C)c1 | inactive: -23.5%
5 | Cn1c(=O)c2sccc2n2c(CCCC(=O)Nc3ccc(F)cc3F)nnc12 | inactive: -2.93%
6 | COc1ccc2c(c1)c1c(c(=O)n(-c3ccccc3C)c(=O)n1Cc1ccccc1C)n2C | inactive: 5.23%
7 | COc1ccc(OC)c(NC(=O)CN2C(=O)CC(c3ccco3)Sc3ccccc32)c1 (configuration not stated) | inactive: -10.7%
8 | O=C(COc1ccc(Cl)cc1)Nc1cc(-c2ccccc2)no1 | inactive: -4.79%
9 | C[C@@H]1C[C@H]2[C@@H]3CCC4=CC(=O)C=C[C@]4(C)[C@@]3(F)[C@@H](O)C[C@]2(C)[C@@]1(O)C(=O)CO | inactive: -64.2%
10 | CCn1c(CN2CCN(c3cccc(Cl)c3)CC2)nc2c1c(=O)[nH]c(=O)n2C | inactive: 8.69%
11 | Cc1cc2nn(-c3ccc(Cl)cc3)nc2cc1NC(=O)C(C)C | inactive: 5.05%
12 | COCCCNc1ncnc2c1c(-c1ccccc1)cn2-c1ccc(C)c(Cl)c1 | inactive: -11.6%
13 | O=C(O)COC(=O)Cc1ccccc1Nc1c(Cl)cccc1Cl | inactive: -1.19%
14 | COc1ccc(OC)c(CCNC(=O)c2cc3c(-c4ccccc4F)nn(C)c3s2)c1 | inactive: 21.7%
15 | COc1ccc(C)cc1NS(=O)(=O)c1ccc2c(c1)[C@H]1C=CC[C@H]1[C@@H](c1cccc(Cl)c1)N2 | inactive: -52.7%
16 | Cc1cc(C)cc(NC(=O)CSCn2nnc3c(=O)[nH]c(Cc4ccc(F)cc4)nc32)c1 | inactive: 2.74%
17 | COc1ccc(CCNC(=O)CCc2c(C)nc3cc(-c4ccccc4)nn3c2C)cc1OC | active: 69.7%
18 | CCOc1cc(C(=O)Nc2ccc3oc(-c4ccc(CC)cc4)nc3c2)cc(OCC)c1OCC | inactive: -7.09%
19 | COc1ccccc1CCNC(=O)CCn1c(=O)c2cccn2c2ccc(F)cc21 | inactive: -17.3%
20 | Clc1nccc2c1ccc1ccccc12 | inactive: 9.19%
21 | Cc1noc(/C=C/c2ccco2)c1S(=O)(=O)N1CCC(C(=O)Nc2ccc(F)cc2F)CC1 | inactive: -22.8%
22 | Cc1cccc(OCc2ccc(-c3nc(C#N)c(N4CCC(C(N)=O)CC4)o3)o2)c1 | inactive: -8.06%
23 | CCc1cc2c(cc3c(=O)n(CCCC(=O)NCc4ccccc4Cl)nc(CC)n32)s1 | inactive: -11.7%
24 | CCOC(=O)c1cccc(NC(=O)Cn2c(=O)nc(-c3ccccc3)c3ccccc32)c1 | inactive: 1.59%
25 | O=C(Nc1cc(C(F)(F)F)ccc1Cl)c1cc(S(=O)(=O)NCc2ccccc2)ccc1F | inactive: -10.2%
26 | CCCCN(Cc1ccccc1)C(=O)CN(C)S(=O)(=O)c1ccc2c(c1)c(=O)n(C)c(=O)n2C | inactive: -10.7%

Row | SMILES | activation
27 | Cc1ccc(OCC(=O)Nc2ccc3nc(SCc4ccccc4)sc3c2)cc1 | inactive: -3.37%
28 | CCOC(=O)c1cccc(NC(=O)CC2C(=O)N(c3ccc(F)cc3)C(=O)N2C(C)C)c1 (configuration not stated) | inactive: -2.83%
29 | COc1ccc(NC(=O)C(Cc2ccccc2)NS(=O)(=O)c2ccc(Br)s2)cc1OC (configuration not stated) | inactive: -6.17%
30 | COCCCNC(=O)CC(c1cc(OC)c(OC)c(OC)c1)N1Cc2ccccc2C1=O (configuration not stated) | inactive: -7.07%
31 | COc1ccc(N2CCN(S(=O)(=O)c3c(C)nc4scc(C)n4c3=O)CC2)cc1 | inactive: 22.5%
32 | Cc1cc(C)c(NC(=O)CSc2nc(C)cc(C)c2C#N)c(C)c1 | inactive: 0.715%
33 | Cc1ccc(C)c(NC(=O)N2CC=C(c3c[nH]c4ccccc34)CC2)c1 | inactive: -24.5%
34 | Cc1cccc(N(C)C(=O)C(Cc2ccccc2)NS(=O)(=O)c2cccc3nsnc23)c1 (configuration not stated) | inactive: -15.9%
35 | O=C(CN1Cc2ccccc2C1=O)Nc1cc(F)ccc1F | inactive: -6.91%
36 | COc1ccc(Nc2ccc3cc(S(=O)(=O)N4CCCC4)ccc3n2)cc1Cl | inactive: -10.6%
37 | COc1ccccc1OCC(=O)N(Cc1ccc(N(C)C)cc1)CC1CCCO1 (configuration not stated) | inactive: -10.7%
38 | CCOc1ccc(-n2c(SCC(=O)Nc3ccccc3OC)nc3c(oc4ccccc43)c2=O)cc1 | inactive: -9.18%
39 | Cc1ccc2oc(=O)c3cnn(CC(=O)N(C)c4ccc(F)cc4)c3c2c1 | inactive: 8.43%
40 | CC(=O)c1ccc(NC(=O)C2CCN(S(=O)(=O)c3ccc4c(c3)CCCN4C(=O)C3CCC3)CC2)cc1 | inactive: -7.14%
41 | COc1ccc(N2CCN(C(=O)Cc3c(C(=O)O)c(C)cn3C)CC2)cc1 | inactive: -4.29%
42 | CCOC(=O)c1c(NC(=O)CCCOc2ccc(C(C)(C)C)cc2)sc2c1CCC2 | inactive: -8.55%
43 | COc1ccc(-n2nc3ccc(NC(=O)COc4ccc(C)c(C)c4)cc3n2)cc1 | inactive: -10.6%
44 | CCc1ccccc1NC(=O)CN(Cc1ccccc1)S(=O)(=O)c1ccc2nc(C)sc2c1 | inactive: -8.93%
45 | CCCSc1nc(=O)c2c(n1C)NC(=O)CC2c1cccc(F)c1F (configuration not stated) | inactive: 7.2%
46 | O=C(Cn1c(-c2cccs2)cc2cc(Cl)ccc21)NCc1ccccc1 | inactive: 6.78%
47 | Cc1cccc(NC(=O)Cn2cc(S(=O)(=O)c3ccc(F)cc3)c(=O)c3cc4c(cc32)OCO4)c1 | inactive: -6.29%
48 | CCc1cc(C(=O)Nc2cnn(Cc3ccc(F)cc3)c2)no1 | inactive: 9.14%
49 | CCC(=O)N1CCc2cc(Br)cc(S(=O)(=O)NCCc3ccccc3Cl)c21 | inactive: 12.7%
50 | CC(=O)c1cccc(NC(=O)c2cnn(-c3cccc(C)c3)c2-n2cccc2)c1 | inactive: -9.28%
51 | Cc1ccc(-c2c(C(=O)N3CCN(c4cccc(C)c4C)CC3)oc(=O)c3ccccc23)cc1 | inactive: -0.878%
52 | Cc1noc2ncnc(Nc3ccc(F)cc3)c12 | inactive: 9.54%
